This is an account of results in publication PMC4336329 (PLoS ONE, 2015).

In all, about 310,000 compounds went through this assay and about 2,200 (0.71%) showed an effect of 50% or more. The effect is printed as a negative number. This is one part of the list.

Sequence of human ether-à-go-go-related gene (hERG) potassium channel (Q12809 whole entry, looked up): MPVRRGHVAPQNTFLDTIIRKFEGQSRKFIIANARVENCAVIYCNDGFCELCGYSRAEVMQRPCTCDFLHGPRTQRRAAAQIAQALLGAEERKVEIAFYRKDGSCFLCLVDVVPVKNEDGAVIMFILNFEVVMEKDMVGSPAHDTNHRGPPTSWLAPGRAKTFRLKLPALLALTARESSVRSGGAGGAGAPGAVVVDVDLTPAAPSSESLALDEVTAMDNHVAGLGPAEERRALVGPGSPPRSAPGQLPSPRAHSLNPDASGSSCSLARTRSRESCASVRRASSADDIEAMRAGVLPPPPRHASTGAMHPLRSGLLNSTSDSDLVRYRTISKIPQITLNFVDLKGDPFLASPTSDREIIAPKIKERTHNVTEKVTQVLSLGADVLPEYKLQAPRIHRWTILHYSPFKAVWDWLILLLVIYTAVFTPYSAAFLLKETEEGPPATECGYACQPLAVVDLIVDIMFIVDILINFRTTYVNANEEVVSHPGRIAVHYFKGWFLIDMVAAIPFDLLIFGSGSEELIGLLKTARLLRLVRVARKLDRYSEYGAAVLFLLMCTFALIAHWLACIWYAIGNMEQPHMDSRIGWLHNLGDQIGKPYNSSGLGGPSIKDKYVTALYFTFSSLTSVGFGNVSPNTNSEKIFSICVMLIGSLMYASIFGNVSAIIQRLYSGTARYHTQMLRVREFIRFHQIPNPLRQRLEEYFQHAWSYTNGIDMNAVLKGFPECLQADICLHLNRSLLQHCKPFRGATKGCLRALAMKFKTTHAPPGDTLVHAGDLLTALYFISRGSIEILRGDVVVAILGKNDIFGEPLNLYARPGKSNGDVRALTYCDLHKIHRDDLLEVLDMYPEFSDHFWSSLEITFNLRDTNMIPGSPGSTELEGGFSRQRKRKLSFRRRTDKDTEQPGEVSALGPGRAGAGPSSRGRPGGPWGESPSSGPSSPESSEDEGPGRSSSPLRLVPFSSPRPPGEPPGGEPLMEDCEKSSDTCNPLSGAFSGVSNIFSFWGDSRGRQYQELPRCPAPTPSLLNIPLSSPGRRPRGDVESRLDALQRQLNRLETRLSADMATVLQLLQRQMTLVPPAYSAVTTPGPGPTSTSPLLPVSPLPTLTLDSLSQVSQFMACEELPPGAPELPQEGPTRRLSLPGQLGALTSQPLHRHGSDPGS

The assay has as its target human ether-à-go-go-related gene (hERG) potassium channel (human, UniProt Q12809). As to the kind of experiment: primary screen, population patch clamp on CHO cells stably expressing hERG.
In the case of `Cc1cc(C(=O)CSc2nc3ccccc3o2)c(C)n1C1CC1`, the “hERG current change (%, negative = inhibition) at 1uM” value worked out at 12%. Next, `Cc1cccc(/C=N/NC(=O)c2ccccc2OCc2cccc(Br)c2)n1`: 11%; `CCCCNc1oc(-c2ccc(OC)cc2)nc1S(=O)(=O)c1ccccc1`: 6.01%. For `O=C(/C(=C/O)N=Nc1ccccc1)c1cccs1`, the “hERG current change (%, negative = inhibition) at 1uM” value came out at 11.9%. Next, `COC(=O)N/N=C/c1ccc(-c2cc(Cl)cc(Cl)c2)o1`: 3.07%. Take `OCC[C@@H]1C[C@@H](O)[C@H](O)[C@]2(CCCc3ccccc3O2)O1`: the “hERG current change (%, negative = inhibition) at 1uM” value is given as 2.37%. Next, `Cn1c(=O)[nH]c2c(nc(-c3ccc(Cl)cc3)n2C)c1=O`: 16.8%. `CCOc1cc(N2CCOCC2)c(OCC)cc1NC(=O)c1[nH]c(C)c(C(C)=O)c1C`: the “hERG current change (%, negative = inhibition) at 1uM” value stood at 10.7%. In the case of `C=CCn1c(COc2ccc(CC)cc2)nnc1SCC(=O)N(C)C1CCS(=O)(=O)C1` (stereo not shown), the “hERG current change (%, negative = inhibition) at 1uM” value turned out to be 6.15%. For `CCc1nc(C)cn1S(=O)(=O)c1ccc(Br)cc1`, the “hERG current change (%, negative = inhibition) at 1uM” value came to 16.2%. `COC(CNC(=O)c1ccc2nc(-c3cccs3)c(-c3cccs3)nc2c1)OC`: the “hERG current change (%, negative = inhibition) at 1uM” value turned out to be 6.81%. Then `COc1ccc(NC(=O)C(=O)N2N=C3CCCCC3C2(O)C(F)(F)F)cc1` (stereo not shown), with 10.8%; and `COc1cc(NC(=O)n2ncc3cc(Cl)ccc32)cc(OC)c1`, with 16.6%; and `CC1(C)CSC(=S)N1S(=O)(=O)c1ccccc1`, with 3.38%. Then `COc1ccc(C(=O)NCC(=O)N2CCN(c3ncccn3)CC2)cc1OC`, with 19.6%; and `Cc1ccc(CS(=O)(=O)c2ncc(Cl)c(C(=O)Nc3nnc(C(C)C)s3)n2)cc1`, with 21.8%; and `COc1ccc(S(=O)(=O)N(C)C)cc1NC(=O)CCNC(=O)c1ccccc1OC`, with 16.4%. `CCC(C)NC(=O)Cc1cn(C)c2ccccc12` (stereo not shown): the “hERG current change (%, negative = inhibition) at 1uM” value is on record as -2.35%. Next, `C[C@H](NC(=O)c1nc[nH]c1C(=O)N[C@H](C)c1ccccc1)C(=O)OCc1ccccc1`: 10.7%. Next, `O=C(CCNC(=O)c1ccc([N+](=O)[O-])cc1)Nc1ccc(N2CCOCC2)cc1N1CCOCC1`: 7.69%; `O=C(O)C(=O)O.OC(COCc1ccc(Cl)cc1)CN1CC=C(c2ccccc2)CC1` (stereo not shown): -84.2%. Next, `Cc1[nH]n(-c2ccc(Cl)cc2)c(=O)c1C(=O)c1ccccc1`: 12.5%; `O=c1c2ccccc2[nH]c(=S)n1CC1CCCO1` (stereo not shown): 10.7%; `COc1ccc(C(=O)NCC(=O)OCC(=O)N(C)c2ccccc2)cc1`: 13%. As for `Cc1cc(C(=O)NNC(=O)CCCCC(=O)NNC(=O)c2cc(C)[nH]n2)n[nH]1`, the “hERG current change (%, negative = inhibition) at 1uM” value was -4.08%. With `CCC(Cc1ccccc1)NC(=O)CN(C)S(=O)(=O)c1ccc2c(c1)c(=O)n(C)c(=O)n2C` (stereo not shown), the “hERG current change (%, negative = inhibition) at 1uM” value was -5.51%. Then `CC[C@@H](C)[C@@H](C(=O)N1CCN(C(=O)OC(C)(C)C)CC1)n1cc(CCC(=O)O)nn1`, with 15.4%.

Turning to `Cc1ccc(NC(=O)COC(=O)CN2C(=O)C3CCCCC3C2=O)cc1C` (stereo not shown), the “hERG current change (%, negative = inhibition) at 1uM” value is recorded as 8.33%. Next, `Cc1cc(C)n(-c2ccc(C(=O)Nc3cccnc3)cc2)n1`: 11.3%; `O=C(NCc1ccc(F)cc1)C1CC(=O)N(C2CCCCCCC2)C1` (stereo not shown): 18.6%.

Consider `COc1ccccc1NC(=O)c1ccc(NC(=O)CSc2nncn2C)cc1`, for which the “hERG current change (%, negative = inhibition) at 1uM” value was 5.75%. Next, `Cc1nnc(NC(=O)C2c3ccccc3Oc3ccccc32)s1`: 8.55%; `O=C(COC(=O)c1ccncc1)NC(=O)C1CCCCC1`: 0.192%.

On to `Fc1ccc2nc(-c3ccccc3)nc(SCc3nnc(-c4ccccc4)o3)c2c1`, for which the “hERG current change (%, negative = inhibition) at 1uM” value is recorded as -1.73%.

In the case of `CCOC(=O)N1CCN(C(=O)CN(Cc2ccccc2)S(=O)(=O)c2ccc(OC)c(Cl)c2)CC1`, the “hERG current change (%, negative = inhibition) at 1uM” value stood at 7.29%.

Take `COC(=O)C1(C)NC(c2ccc(F)cc2)C2C(=O)N(c3ccccc3)C(=O)C21` (stereo not shown): the “hERG current change (%, negative = inhibition) at 1uM” value is listed as 11.3%. Next, `CCOc1ccc(NC(=O)CCN2CCN(c3ccccc3OC)CC2)cc1`: 0.808%; `CCOC(=O)C(C)Oc1cccc2c(=O)n(CC(=O)NCc3ccc4c(c3)OCO4)ccc12` (stereo not shown): 18.5%; `O=C(Cn1cccc1C(=O)c1ccccc1)NCCC1=CCCCC1`: -7.9%. Next, `Cc1cc(C)c[n+](CC(=O)c2ccccc2)c1.[Br-]`: 20.1%; `O=C(Nc1ccn(Cc2ccccc2)n1)c1n[nH]c([N+](=O)[O-])c1Cl`: -8.9%; `CCc1nnc(NC(=O)CS(=O)(=O)c2ccccc2)s1`: 12.1%. Next, `CCOC(=O)c1c(NC(=O)CSc2nnc(-c3ccc(Cl)cc3)o2)sc2c1CCC2`: 3.09%. For the compound `COc1ccc(O)c(/C=N/Nc2nc(Nc3ccccc3)nc(-n3nc(C)cc3C)n2)c1`, the “hERG current change (%, negative = inhibition) at 1uM” value came out at 7.08%.

For the compound `O=C1c2cccnc2C(=O)N1Cc1ccccc1`, the “hERG current change (%, negative = inhibition) at 1uM” value is listed as 4.89%. Turning to `CCNc1nc(NC(C)C)nc(NS(=O)(=O)c2ccc(C)cc2)n1`, the “hERG current change (%, negative = inhibition) at 1uM” value is on record as 9.71%. Next, `CC1(C)CC(=O)c2cnn(-c3nc4ccccc4[nH]3)c2C1`: 6.98%. Then `CN(C)c1ccc(C(=O)N2CCN(c3cc(C(F)(F)F)nc4ccccc34)CC2)cc1`, with 4.98%; and `O=C(c1ccc(F)cc1)C1CCN(Cc2cn[nH]c2-c2ccccc2)CC1`, with -84.2%; and `O=C(C[n+]1ccc(Cc2ccccc2)cc1)Nc1ccc([N+](=O)[O-])cc1Cl.[Cl-]`, with 1.51%.

As to `COc1ccc(CC(=O)Oc2ccc(F)c(F)c2)cc1S(=O)(=O)N1CCOCC1`, the “hERG current change (%, negative = inhibition) at 1uM” value is recorded as 1.01%. Then `C=CC[n+]1c(C)csc1Nc1ccc(C)cc1.[Br-]`, with 11.5%; and `Cc1cc(-c2nnc(CCC(=O)NC(C)c3ccccc3Cl)o2)no1` (stereo not shown), with 5.53%; and `O=C(Cn1c(=O)oc2ccccc21)Nc1n[nH]c(=S)s1`, with 13.7%. Then `CS(=O)(=O)c1ccc(Cl)c(NC(=O)COC(=O)Cc2c[nH]c3ccccc23)c1`, with 5.09%; and `O=C(CCNC(=O)c1ccco1)Nc1ccc(Cl)cc1`, with 5.16%. Next, `O=C(Nc1ccc2nc(-c3ccccn3)c(-c3ccccn3)nc2c1)N1CCOCC1`: 10.5%. Regarding `O=C(COC(=O)c1ccc(S(=O)(=O)N2CCCC2)cc1)Nc1ccc(Cl)cc1`, the “hERG current change (%, negative = inhibition) at 1uM” value is on record as 2.58%. Consider `Cc1cc2c(cc(C(=O)OC(C(=O)NC3CCCCC3)C(C)C)n2C)o1` (stereo not shown), for which the “hERG current change (%, negative = inhibition) at 1uM” value amounted to 11.2%. With `CCCn1c(SCC(=O)Nc2cc(S(=O)(=O)N3CCOCC3)ccc2Cl)n[nH]c1=O`, the “hERG current change (%, negative = inhibition) at 1uM” value is given as 7.54%. Next, `COc1cc(Br)cc(C2C3=C(CCCC3=O)N(c3ccc(F)cc3)C3=C2C(=O)CCC3)c1O`: 3.12%; `Cc1cc(C(=O)CSc2nnnn2-c2ccccc2)c(C)n1CCc1ccccc1`: 14.8%; `N=C1C(c2nc(-c3ccc(F)cc3)cs2)=C(O)CN1CCCN1CCOCC1`: -1.21%. Then `CCn1c(SCC(=O)Nc2cc(C)nn2-c2ccccc2)nnc1-c1cccs1`, with 6.59%; and `COc1cccc(NC(=O)CN(C)C(=O)c2ccc(-c3ccc(Cl)cc3)o2)c1`, with 16.8%; and `CCOC(=O)C1=Nc2ccccc2/C1=C\c1c(O)n(C)c(=O)n(C)c1=O`, with 10%.

On to `CCN(CC)c1ccc(/C=C/c2ccc3ccc(OC)cc3[n+]2CC)cc1.[I-]`, for which the “hERG current change (%, negative = inhibition) at 1uM” value is recorded as -85%. Next, `CC1(C)C(=O)OC(C(=O)c2ccccc2)C2(CCCCC2)C1=O` (stereo not shown): 8.37%; `Cc1ccc(/C=N/NC(=O)c2ccco2)cc1`: 12.6%; `COc1cccc(N2C(=NC(=O)C3CCCO3)SC3CS(=O)(=O)CC32)c1` (stereo not shown): 10.6%. Consider `O=C(C1CCN(c2ncnc3c2nc2n3CCCCC2)CC1)N1CCN(c2ccc(F)cc2)CC1`, for which the “hERG current change (%, negative = inhibition) at 1uM” value is recorded as -3.19%. Then `Nc1cccc(-c2cnc3ccccc3n2)c1`, with 17.6%; and `COc1ccc(CCNC(=O)c2cccc(C(=O)NCCc3ccc(OC)cc3)n2)cc1`, with -1.57%. Regarding `CCC(=O)Nc1cccc(C2=NOC3(C2)C[C@@H](C(N)=O)N(C(=O)c2ccccc2C(=O)c2ccccc2)C3)c1` (stereo partly shown), the “hERG current change (%, negative = inhibition) at 1uM” value was 6.86%. Next, `Cc1nc(SCC(=O)NCc2ccco2)[nH]c(=O)c1C`: 16.9%; `COc1ccc(COC(=O)C2CCN(S(=O)(=O)c3ccc(F)cc3)CC2)cc1`: 4.6%; `O=S(=O)(Cc1ccccc1)NCC1CCCN(Cc2cccc3nonc23)C1` (stereo not shown): -10.3%. Next, `COc1ccc(C(=O)Nc2cc3c(cc2N2CCCCC2)n(C)c(=O)n3C)cc1OC`: 17.1%; `COc1ccc(/C=C2\CCC(C3CCCC3)C2=O)c(OC)c1` (stereo not shown): 10.1%; `COc1ccccc1-c1nnc(SCC(=O)c2c(N)n(C3CC3)c(=O)[nH]c2=O)o1`: 5.55%. As to `CCC(Oc1ccccc1OC)C(=O)Nc1ccc2c(c1)n(C)c(=O)n2C` (stereo not shown), the “hERG current change (%, negative = inhibition) at 1uM” value is 7.49%. On to `O=C(C1CC(c2ccc(Cl)c(Cl)c2)=NO1)N1CCC2(CC1)OCCO2` (stereo not shown), for which the “hERG current change (%, negative = inhibition) at 1uM” value was -4.53%. Next, `CC1=C(C)CC(C(=O)Nc2nc(C)cs2)C(C(=O)O)C1` (stereo not shown): 15.1%. Next, `COC(=O)c1ccccc1NC(=S)NC(=O)c1ccc2ccccc2c1`: 22.9%; `O=C(COC(=O)CCc1nc2ccccc2s1)Nc1cccc(S(=O)(=O)N2CCOCC2)c1`: 8.14%.
